In PubChem BioAssay AID360 (National Center for Advancing Translational Sciences (NCATS), 2006) one finds Potency data, which are given here for 59 compounds.

Among all 48,000 compounds or so, about 550 (1.1%) were called active. About 4% were inconclusive and are not listed. No stated cut-off is given here; in the data, active means potency below about 15 µM; inconclusive means mostly about 16 µM to 33 µM; inactive means weaker than that. Some of the results follow.
Potency means the concentration at half of the fitted maximal effect.

Chain of UniProt P04062 (P04062 whole entry, looked up): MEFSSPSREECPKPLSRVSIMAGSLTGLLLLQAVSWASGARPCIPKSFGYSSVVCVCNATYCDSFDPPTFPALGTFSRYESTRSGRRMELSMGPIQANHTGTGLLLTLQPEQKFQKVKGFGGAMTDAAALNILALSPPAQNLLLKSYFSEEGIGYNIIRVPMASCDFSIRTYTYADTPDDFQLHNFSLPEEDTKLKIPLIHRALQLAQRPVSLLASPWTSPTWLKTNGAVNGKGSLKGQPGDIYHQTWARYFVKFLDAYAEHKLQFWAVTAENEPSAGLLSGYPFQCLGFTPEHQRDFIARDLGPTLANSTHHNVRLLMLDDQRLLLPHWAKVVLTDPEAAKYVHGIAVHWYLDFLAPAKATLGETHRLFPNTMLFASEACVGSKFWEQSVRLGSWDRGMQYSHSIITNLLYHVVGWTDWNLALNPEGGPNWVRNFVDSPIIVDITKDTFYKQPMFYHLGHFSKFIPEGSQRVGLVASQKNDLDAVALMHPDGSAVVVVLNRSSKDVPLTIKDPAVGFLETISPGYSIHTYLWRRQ

This test concerns the target Lysosomal acid glucosylceramidase (Homo sapiens) (UniProt P04062). Kind of test: Glucocerebrosidase.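 Further: the screen sought inhibitors.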 The settings on record: purified enzyme, resorufin glucoside fluorescence (screen aimed at inhibitors), 20 min. In outline:
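Normal human glucocerebrosidase (0.2 nM final) was assayed with resorufin β-D-glucopyranoside (30 uM final) in 50mM citric acid/KH2PO4, 10mM sodium taurocholate, 0.01% tween-20, pH 5.9. Compounds were titrated; fluorescence (Ex 548, Em 600) read after 20 min at RT.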
As for `Cc1ccccc1N1C(=O)CC(N2CCC(C(N)=O)CC2)C1=O` (centres undefined), the Potency is inactive: > 76.9 µM.

As for `N/C(=N/O)c1nc(N2CCCCC2)nc(N2CCCCC2)n1`, the Potency entry is “inactive”.

For `CCC(=O)N(Cc1cc2cc(OC)ccc2[nH]c1=O)c1cc(C)ccc1C`, the Potency was inactive: > 76.9 µM.

Turning to `O=C(OC1CCOC1=O)c1cncc(Br)c1` (centres undefined), the Potency is inactive: > 76.9 µM.

Consider `Cc1c(NS(=O)(=O)N2CCCC2)c(=O)n(-c2ccccc2)n1C`, for which the Potency was inactive: > 76.9 µM.

Take `CCOC(=O)C1CCCN(C(=O)c2sc3nc(-c4ccc(OC)cc4)cn3c2C)C1` (centres undefined): the Potency is inactive: > 76.9 µM.

For the compound `CCOC(=O)CNC(=O)CSc1nnnn1-c1ccc(C)c(C)c1`, the Potency is inactive: > 76.9 µM.

`COc1ccc(N/C(=N\c2nc(C)cc(C)n2)NC(C)=O)cc1OC`: the Potency is inactive: > 76.9 µM.

For the compound `c1ccc(Nc2cc(-c3ccccc3)nc3ncnn23)cc1`, the Potency was inactive: > 76.9 µM.

For `Cc1nn(-c2ccccc2)c(Cl)c1C(=O)NCC(=O)O`, the Potency was inactive: > 76.9 µM.

Take `Cc1ccc(S(=O)(=O)N(C)c2ccc(C(=O)N3CCC(C(N)=O)CC3)cc2)cc1`: the Potency was inactive: > 76.9 µM.

As for `CCOC(=O)C1CCCN(C(=O)C2CCN(S(=O)(=O)c3cnc[nH]3)CC2)C1` (centres undefined), the Potency is inactive: > 76.9 µM.

As to `O=C(Nc1ccc2c(c1)OCCO2)C1CCCN(c2ncccn2)C1` (centres undefined), the Potency is inactive: > 76.9 µM.

Regarding `CCc1n[nH]c2c1/C(=N\O)CC(c1ccccc1)C2` (centres undefined), the Potency is inactive: > 76.9 µM.

For `CC1=C(C(=O)OC2CCCCC2)C(c2cccnc2)n2nnnc2N1` (centres undefined), the Potency was inactive: > 76.9 µM.

`CCS(=O)(=O)c1ccc2oc(SCC(=O)NCCC3=CCCCC3)nc2c1`: the Potency is inactive: > 76.9 µM.

With `COc1cccc(N(CC(=O)NC(C)(C)C)C(=O)C2CSC(=O)C2)c1` (centres undefined), the Potency is inactive: > 76.9 µM.

For the compound `COC(=O)c1ccc(S(=O)(=O)N(Cc2cc3cc4c(cc3[nH]c2=O)OCO4)C2CCCCC2)cc1`, the Potency was inactive: > 76.9 µM.

With `CC(C)OC(=O)c1cc(NC(=O)C2C3CCC(O3)C2C(=O)O)cc(C(=O)OC(C)C)c1` (centres undefined), the Potency is inactive: > 76.9 µM.

As to `Cc1csc(NC(=O)CCC(=O)N(CC(=O)NC2CCCC2)Cc2ccco2)n1`, the Potency is inactive: > 76.9 µM.

Take `O=C(CSc1ccccc1)Nc1ccc(S(=O)(=O)NCC2CCCO2)cc1` (centres undefined): the Potency was inactive: > 76.9 µM.

Take `C=CCOC(=O)C1=C(C)Nc2ncnn2C1c1cc(Br)ccc1F` (centres undefined): the Potency was inactive: > 76.9 µM.

`COC(=O)CC1SCCNC1=O` (centres undefined): the Potency is inactive: > 76.9 µM.

Turning to `Cc1cccc(OCC(=O)Nc2cccc(O)c2)c1`, the Potency is inactive: > 76.9 µM.

As to `COc1ccccc1CNC(=O)C1CCN(S(=O)(=O)N2CC(C)CC(C)C2)CC1` (centres undefined), the Potency was inactive: > 76.9 µM.

Take `Cc1nnc(SCC2CCCO2)n1-c1ccccc1` (centres undefined): the Potency is inactive: > 76.9 µM.

Take `O=C(O)C1CC(=O)N(c2ccc(F)cc2)C1` (centres undefined): the Potency is inactive: > 76.9 µM.

With `COC(=O)c1cc(Br)c(=O)n(-c2ccc(C(C)=O)cc2)c1`, the Potency is inactive: > 76.9 µM.

`Cc1ccc(-c2nc(N)n(S(C)(=O)=O)n2)cc1`: the Potency is inactive: > 76.9 µM.

For `O=S(=O)(c1cccc(S(=O)(=O)N2CCC(Cc3ccccc3)CC2)c1)N1CCOCC1`, the Potency is inactive: > 76.9 µM.

With `C=CCNc1ncnc2c1[nH]c1ccccc12`, the Potency entry is “inactive”.

Consider `COC(=O)Nc1c(-c2ccccc2)nc2ccc(C)cn12`, for which the Potency was inactive: > 76.9 µM.

Regarding `Cc1[nH]c2ccccc2c1/C=N/n1cnnc1`, the Potency was inactive: > 76.9 µM.

On to `CCCS(=O)(=O)N1CCCC(C(=O)NCCN2CCCCC2C)C1` (centres undefined), for which the Potency was inactive: > 76.9 µM.

As to `CC(C)NS(=O)(=O)c1ccc(CCC(=O)N2CCOCC2)cc1`, the Potency is inactive: > 76.9 µM.

As to `COC(=O)c1[nH]c2cc(OC)ccc2c1N`, the Potency is inactive: > 76.9 µM.

For `CN1CCN(CCCNC(=O)c2cc3c(=O)oc4ccccc4c3s2)CC1`, the Potency is inactive: > 76.9 µM.

On to `O=C(NCCNC(=O)C(c1ccccc1)c1ccccc1)c1ccco1`, for which the Potency is inactive: > 76.9 µM.

As for `O=C(Cn1nnc(-c2ccccc2Cl)n1)N1CCN(S(=O)(=O)c2ccc(Cl)cc2)CC1`, the Potency was inactive: > 76.9 µM.

As to `COc1nnc(OC)c2ccccc12`, the Potency is inactive: > 76.9 µM.

Regarding `CCCS(=O)(=O)N1CCN(C(=O)c2ccccc2F)CC1`, the Potency was inactive: > 76.9 µM.

As for `COc1ccc(CC(NC(C)=O)C(=O)NC2CCN(c3nc(C)cc(C)c3C#N)CC2)c(OC)c1` (centres undefined), the Potency is inactive: > 76.9 µM.

In the case of `CN(C)c1ccc(/C=c2\sc3nc(-c4ccccc4)nn3c2=O)cc1`, the Potency was inactive: > 76.9 µM.

For `CCOCCn1c(CN(Cc2ccccc2)Cc2ccccc2)nc2c1c(=O)[nH]c(=O)n2C`, the Potency was inactive: > 76.9 µM.

Take `COc1cccc(OCCSc2nnc3sc4ccccc4n23)c1`: the Potency was inactive: > 76.9 µM.

`O=C(Nc1nc2c(s1)CCc1ccccc1-2)c1ccco1`: the Potency is inactive: > 76.9 µM.

For `COc1ccccc1CN1CC(C(=O)NCc2cccnc2)CC1=O` (centres undefined), the Potency is inactive: > 76.9 µM.

Take `COc1ccc(CC(=O)Nc2ccc3c(c2)CCC3)cc1S(=O)(=O)N1CCOCC1`: the Potency is inactive: > 76.9 µM.

In the case of `CCOc1ccc(N2C(=O)c3cccnc3C2Nc2ccc(C)cc2)cc1` (centres undefined), the Potency was inactive: > 76.9 µM.

On to `CCS(=O)(=O)N1CCN(C2CCC(C)CC2)CC1` (centres undefined), for which the Potency was inactive: > 76.9 µM.

Consider `O=C(c1ccc2c(c1)OCO2)N1CCN(c2ccc(F)cc2)CC1`, for which the Potency is inactive: > 76.9 µM.

`CC(=O)NCCc1cc2cc(C)c(C)cc2[nH]c1=O`: the Potency was inactive: > 76.9 µM.

Take `C=CCOC(=O)CCC(=O)Nc1cc(OC)nc(OC)n1`: the Potency was inactive: > 76.9 µM.

In the case of `CCCC(C(=O)c1ccccc1)n1cncn1` (centres undefined), the Potency is inactive: > 76.9 µM.

Take `CCOC(=O)c1c(C)[nH]c(C(=O)COc2ccc3c(c2)OCO3)c1C`: the Potency is inactive: > 76.9 µM.

Regarding `CC1(C)NC(=O)N(CC(O)CNC23CC4CC(CC(C4)C2)C3)C1=O` (centres undefined), the Potency was inactive: > 76.9 µM.

As for `O=C(C1CCCN(S(=O)(=O)c2ccc(F)cc2)C1)N1CCCC1` (centres undefined), the Potency was inactive: > 76.9 µM.

For `O=C(NC1CCCC1)c1ccc2nc(-c3ccco3)c(-c3ccco3)nc2c1`, the Potency was inactive: > 76.9 µM.

Turning to `CCOc1ccc(C(=O)NC2CCN(C(=O)NCc3ccccc3)CC2)cc1`, the Potency was inactive: > 76.9 µM.
